# Sequences with one replicate were seen in a single cluster, so their values are uncertain.
# Tested on: ATP
# Assay: switch fluorescence ratio, 500 uM ATP over buffer (Cy3 cluster intensity, sum of 5 cycles each) (fold (ratio)); higher = stronger signal-on switching upon ATP binding; sequences stand for … in TCGTCGGCAGCGTCAGATGTGTATAAGAGACAGTTTTTTTTTTTTTTTTTTTTTTTTT…TC
# Conditions: aptamer strand: ATP DNA aptamer (quencher-CACCTGGGGGAGTATTGCGGAGGAAGG + anchor), 100 nM annealed; ATP concentration: 500 uM; one replicate
# In short: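 Exposure to 500 uM ATP lasted 15 min at 22 °C before imaging, and a selection-buffer image was taken beforehand, for Cy3-labelled switching-strand clusters on a modified Illumina MiSeq flow-cell annealed to 100 nM quencher-labelled ATP aptamer. Five buffer/ATP cycles were run with NaOH stripping and re-annealing between them. The fluorescence ratio per cluster is summed target-cycle over summed buffer-cycle Cy3 intensity, averaged per switch-domain sequence. Clusters outside 100-1000 RFU were excluded.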
row,Sequence,switch fluorescence ratio
1,CCCCCATGGG,1.6
2,CCCCCGGGGA,1.25
3,CCCCGAGGAC,2.54
4,CCCCGAGTGT,3.03
5,CCCCGCGCGG,1.03
6,CCCCGCGGGG,4.73
7,CCCCGGACGT,1.12
8,CCCCGGCTCA,1.3
9,CCCCGGGAGA,1.14
10,CCCCGTGCTC,3.64
11,CCCCGTGTTA,1.54
12,CCCCTAAGCC,1.02
13,CCCCTCATGG,1.61
14,CCCCTTAAAG,1.02
15,CCCCTTAGAG,1.03
16,CCCGACACTC,1.74
17,CCCGACGCGG,4.57
18,CCCGCAGTTT,2.32
19,CCCGCATTTA,5.45
20,CCCGCCAAAA,1.17
21,CCCGCCAAGT,1.55
22,CCCGCTTGGA,1.17
23,CCCGGAGGT,0.964
24,CCCGGATGAG,1.02
25,CCCGGCAACT,3.78
26,CCCGGCAATT,5.41

row,Sequence,switch fluorescence ratio
1,CCCGGGCACT,1.05
2,CCCGGGGACT,1.34
3,CCCGGTGTGG,1.15
4,CCCGTACCTC,1.55
5,CCCGTGGGGT,0.983
6,CCCGTTACT,1.24
7,CCCGTTTCAC,1.18
8,CCCGTTTCGA,0.995
9,CCCTAAATAT,1.1
10,CCCTAGGATC,1.02
11,CCCTCCATGA,1.32
12,CCCTCCTTTG,1.04
13,CCCTCGCCGT,1.05
14,CCCTCGTACG,1.08
15,CCCTCGTGTG,0.955
16,CCCTCTTGGT,1.09
17,CCCTGATTAC,1.71
18,CCCTGCACAA,3.22
19,CCCTGGATGT,1.09
20,CCCTGGCAAG,1.5
21,CCCTGTTTAG,0.978
22,CCCTTCGTTG,0.951
23,CCCTTGAT,1.01
24,CCCTTTTCTT,1.02
25,CCGAAAAGG,1.08
26,CCGAAACAT,1.62

row,Sequence,switch fluorescence ratio
1,CCGAAAGTAA,5.22
2,CCGAAGGGAT,1.25
3,CCGAAGGGTG,1.2
4,CCGACAAGAG,2.55
5,CCGAGAATTG,1.08
6,CCGAGATACC,2.9
7,CCGAGCAGGA,2.9
8,CCGAGCCCGC,1.36
9,CCGAGGATCA,1
10,CCGAGGGCGT,1.09
11,CCGAGGGTCC,1.08
12,CCGAGGTAT,2.93
13,CCGAGTATAT,2.96
14,CCGAGTATTG,1.16
15,CCGAGTTAGC,1.33
16,CCGAGTTGC,2.11
17,CCGATATAGG,1.08
18,CCGATCTTAA,1.07
19,CCGATTATGG,1.11
20,CCGATTCTCT,1.09
21,CCGCACAAGG,2.88
22,CCGCACCAAA,3.02
23,CCGCAGGA,1.24
24,CCGCCGGATA,2.68
25,CCGCGCAGCT,1.05
26,CCGCGGAATC,1.19

row,Sequence,switch fluorescence ratio
1,CCGCGGGATA,1.07
2,CCGCGTAGGT,1.24
3,CCGCGTCCAA,2.5
4,CCGCGTCGGC,1.54
5,CCGCGTGCGG,1.01
6,CCGCTCGTTT,1.48
7,CCGCTGGTCA,1.39
8,CCGCTGGTTG,1.08
9,CCGCTTCGGG,1.01
10,CCGCTTGCAG,1.28
11,CCGGAAGATC,1.97
12,CCGGACGGGG,1.06
13,CCGGAGGCCT,1.1
14,CCGGAGGTCA,1.29
15,CCGGATCCGG,0.965
16,CCGGATTTTT,1.02
17,CCGGCACCAA,2.4
18,CCGGCCAAAT,1.33
19,CCGGCCCGCC,1.33
20,CCGGCTCTAC,3.58
21,CCGGGAAGAA,1.03
22,CCGGGAGCCA,2.16
23,CCGGGAGGGC,1.08
24,CCGGGCTACG,1.08
25,CCGGGGACTT,1.09
26,CCGGGGGACT,1.23

row,Sequence,switch fluorescence ratio
1,CCGGGGGCCC,2.57
2,CCGGGGTGCC,1.05
3,CCGGGTTAGA,1.03
4,CCGGGTTTAA,1.07
5,CCGGTACCAA,1.6
6,CCGGTACCCA,1.06
7,CCGGTGATAT,1.38
8,CCGGTGCTCT,1.25
9,CCGGTGGCGC,1.02
10,CCGGTGGCGG,1.04
11,CCGGTGGCGT,0.974
12,CCGGTGGTGC,1.04
13,CCGGTGTCAT,1.21
14,CCGGTTGGAC,1.56
15,CCGGTTGTTT,0.964
16,CCGGTTTCAA,1.26
17,CCGTAATAGA,2.9
18,CCGTAGAGCG,1.1
19,CCGTAGTGGG,1.96
20,CCGTATCGAT,1.04
21,CCGTATGAGC,1.1
22,CCGTATTGCA,1.34
23,CCGTATTTAT,0.959
24,CCGTCACTTG,1.01
25,CCGTCATTAA,2.37
26,CCGTCCTTTT,1.01

row,Sequence,switch fluorescence ratio
1,CCGTCGCCT,1.2
2,CCGTCTAAAC,3.13
3,CCGTCTATCT,1.14
4,CCGTGGATGG,1.17
5,CCGTGGCGAC,2
6,CCGTGGGCGA,1.35
7,CCGTGGTCCA,1.03
8,CCGTGGTCCT,0.998
9,CCGTGTAATT,1.28
10,CCGTGTAGCT,1.05
11,CCGTGTGACA,0.991
12,CCGTGTGAGA,1
13,CCGTGTGGGG,1
14,CCGTTACCGT,1.02
15,CCGTTATTGG,1
16,CCGTTCTAAT,1.07
17,CCGTTCTAGT,0.998
18,CCGTTGAGA,1.04
19,CCGTTGGAGA,1.05
20,CCGTTTAAGG,1
21,CCGTTTTTTC,1.04
22,CCTAAATATA,1.29
23,CCTAACTAGG,1.01
